Out of some 2,300 compounds screened, about 330 (14%) showed activity.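 Rule for the calls: active = median modified Z-score above 1.96; inactive = 1.96 or below.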 This is a selection; strong and weak results do not stand in their true shares.
tested on: HepG2 Srxn1-GFP reporter cells (+30 nM CDDO-Me); test: Srxn1-GFP intensity median modified Z-score relative to plate median; higher = stronger NRF2 / oxidative stress reporter activation, active = hit call of the paper; details: 10 µM; exposure time: 24h
Summary of the method: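 The per-plate modified Z-score of GFP intensity, taken as a median across replicates, is what each value represents. Three replicate plates of HepG2 Srxn1-GFP BAC reporter cells were exposed for 24 h to an NRF2 activator at 30 nM combined with compound at 10 μM (≤0.1% DMSO). Cytoplasmic GFP per cell was read from confocal images, excluding any with under 100 cells, and scaling used 1.4826 × median absolute deviation.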

Srxn1-GFP intensity median modified Z-score, active:
C=CCOC(Cn1ccnc1)c1ccc(Cl)cc1Cl (stereo not drawn) [euspeclibcmpd2390] 6.42
O=C(OC[C@H]1O[C@H](OC(=O)c2cc(O)c(O)c(OC(=O)c3cc(O)c(O)c(O)c3)c2)[C@H](OC(=O)c2cc(O)c(O)c(OC(=O)c3cc(O)c(O)c(O)c3)c2)[C@@H](OC(=O)c2cc(O)c(O)c(OC(=O)c3cc(O)c(O)c(O)c3)c2)[C@@H]1OC(=O)c1cc(O)c(O)c(OC(=O)c2cc(O)c(O)c(O)c2)c1)c1cc(O)c(O)c(OC(=O)c2cc(O)c(O)c(O)c2)c1 [euspeclibcmpd649] 8.09
CC(C)(O)c1ccccc1CC[C@@H](SCC1(CC(=O)O)CC1)c1cccc(/C=C/c2ccc3ccc(Cl)cc3n2)c1 [euspeclibcmpd2362] 8.32
CN(C)c1ccc2nc3ccc(N(C)C)cc3[s+]c2c1 [euspeclibcmpd789] 9.06
NCCOB(c1ccccc1)c1ccccc1 [euspeclibcmpd2465] 7.48
CC1OC(O[C@H]2/C=C/C=C/C=C/C=C/C=C/C=C/C=C/[C@H](C)[C@@H](O)[C@@H](C)[C@H](C)OC(=O)CC(O)CC(O)CCC(O)C(O)CC(O)C[C@]3(O)C[C@H](O)C(C(=O)O)C(C2)O3)C(O)[C@H](N)C1O (stereo partly drawn) [euspeclibcmpd24] 1.97
CO[C@H]1CC(O[C@@H]2/C(C)=C/C[C@@H]3C[C@@H](C[C@]4(C=C[C@H](C)[C@@H](C5CCCCC5)O4)O3)OC(=O)C3=CC(C)[C@@H](O)[C@H]4OC/C(=C\C=C\[C@@H]2C)[C@@]34O)O[C@@H](C)C1O[C@H]1C[C@H](OC)[C@@H](O)[C@H](C)O1 (stereo partly drawn) [euspeclibcmpd131] 8.87

Srxn1-GFP intensity median modified Z-score, inactive:
CCNC(=O)/C=C/c1cccc(Br)c1 [euspeclibcmpd2056] 0.0693
COc1ccccc1OCC(O)COC(N)=O (stereo not drawn) [euspeclibcmpd189] -0.108
COc1ccc2c(=O)c(CC(=O)O)coc2c1 [euspeclibcmpd1386] -0.383
CNc1ccccc1C(=O)N1CCc2c([nH]c3ccccc23)C1=O [euspeclibcmpd1696] 0.787
O=C1NC(=O)C(c2ccccc2)(c2ccccc2)N1 [euspeclibcmpd2256] -0.295
FC(F)(F)COCC(F)(F)F [euspeclibcmpd1294] -0.6
CN1Cc2c(N)cccc2C(c2ccccc2)C1 (stereo not drawn) [euspeclibcmpd995] -0.176
CC(=O)Oc1cccc(C)c1 [euspeclibcmpd1228] -0.455
CN(C)CC(c1ccc(O)cc1)C1(O)CCCCC1 (stereo not drawn) [euspeclibcmpd680] -0.56
CC1(C)CC2C1CCC1(C)OC2(C)CCC1O (stereo not drawn) [euspeclibcmpd1567] 0.0481
OCc1ccccc1O [euspeclibcmpd264] -0.00801
O=C(c1ccccc1)c1ccc2n1CCC2C(=O)O (stereo not drawn) [euspeclibcmpd635] -0.00979
COc1c(N2CCNC(C)C2)c(F)cc2c(=O)c(C(=O)O)cn(C3CC3)c12 (stereo not drawn) [euspeclibcmpd1152] 0.136
CC(CCC(=O)O)C1CCC2C3CCC4CC(O)CCC4(C)C3CCC12C (stereo not drawn) [euspeclibcmpd1980] -0.547
CC(C)=CCOc1ccc2c(=O)c(-c3ccccc3)coc2c1 0.352
CCOC(=O)c1c(C)cc(O)cc1O [euspeclibcmpd1626] -0.454
CN(C)CCCN1c2ccccc2Sc2ccc(Cl)cc21 [euspeclibcmpd59] 0.609
CC1(C)C=Cc2cc3ccc(=O)oc3cc2O1 [euspeclibcmpd1414] -0.107
COc1ccnc(C[S+]([O-])c2nc3cc(OC(F)F)ccc3[nH]2)c1OC (stereo not drawn) [euspeclibcmpd709] 0.763
O=c1[nH]c(=O)c2ccccc2o1 [euspeclibcmpd1179] -0.085
NC(Cc1c[nH]c2ccccc12)C(=O)O (stereo not drawn) [euspeclibcmpd315] 0.211
CC(=O)c1c(O)cc(O)cc1O [euspeclibcmpd1563] 0.123
O=c1c(CC[S+]([O-])c2ccccc2)c(O)n(-c2ccccc2)n1-c1ccccc1 (stereo not drawn) [euspeclibcmpd282] -0.197
CCCCN1CCCCC1C(=O)Nc1c(C)cccc1C (stereo not drawn) [euspeclibcmpd607] -0.941
Cc1cc(=O)oc2c(O)c(O)ccc12 [euspeclibcmpd2382] -0.448
CC(C)(C)c1ccc(C(O)CCCN2CCC(C(O)(c3ccccc3)c3ccccc3)CC2)cc1 (stereo not drawn) [euspeclibcmpd598] -1.89
CC12CCCC(O)(C1)C1CC(C)(C)C1CC2 (stereo not drawn) [euspeclibcmpd1586] -0.367
COc1ccc(CC2c3cc(OC)c(OC)cc3CC[N+]2(C)CCC(=O)OCCCCCOC(=O)CC[N+]2(C)CCc3cc(OC)c(OC)cc3C2Cc2ccc(OC)c(OC)c2)cc1OC (stereo not drawn) [euspeclibcmpd881] 0.609
O=c1ccn([C@@H]2O[C@H](COP(=O)(O)OP(=O)(O)OP(=O)(O)O)[C@@H](O)[C@H]2O)c(=O)[nH]1 [euspeclibcmpd2431] 0.468
Cc1nc(-c2ccc(OCC(C)C)c(C#N)c2)sc1C(=O)O [euspeclibcmpd877] 0.0147
C=C(C)C1CC=C(CO)CC1 (stereo not drawn) [euspeclibcmpd1438] -0.37
CC=C(c1ccc(O)cc1)C(CC)c1ccc(O)cc1 (stereo not drawn) [euspeclibcmpd93] 0.179
CC(=O)/N=c1\sc(S(N)(=O)=O)nn1C [euspeclibcmpd555] 0.456
COc1cc(NC(C)CCCN)c2ncccc2c1 (stereo not drawn) [euspeclibcmpd2194] 1.23
CCCCC1(COC(=O)CCC(=O)O)C(=O)N(c2ccccc2)N(c2ccccc2)C1=O [euspeclibcmpd1965] 0.461
CCOC(=O)c1ccc(N)cc1 [euspeclibcmpd34] -0.333

Reference: the supplement of paper PMC10498489
